Measured values reported in the supplement of paper PMC8728848.
Some of the results follow.

Tests used:
Experiment in all cases: glycan array binding signal (z-score within array); higher = stronger binding
Details in all cases: glycan notation: IUPAC condensed, linker removed
[1] = target: Fuc(a1-2)Gal(b1-4)[Fuc(a1-3)]GlcNAc
Outline: (§1)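 The binding signal is a Z-score computed within each array. Data were drawn from 3228 arrays in the Consortium for Functional Glycomics database, restricted to those with a known protein sequence. Scores were averaged over arrays of the same protein sequence at different concentrations or buffers, and over linkers, and negative values can be taken as non-binding.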

[2] = target: Fuc(a1-2)Gal(b1-4)[Fuc(a1-3)]GlcNAc(b1-2)Man(a1-3)[Fuc(a1-2)Gal(b1-4)[Fuc(a1-3)]GlcNAc(b1-2)Man(a1-6)]Man(b1-4)GlcNAc(b1-4)GlcNAc
Outline: as §1

[3] = target: Fuc(a1-2)Gal(b1-4)[Fuc(a1-3)]GlcNAc(b1-2)[Fuc(a1-2)Gal(b1-4)[Fuc(a1-3)]GlcNAc(b1-4)]Man(a1-3)[Fuc(a1-2)Gal(b1-4)[Fuc(a1-3)]GlcNAc(b1-2)Man(a1-6)]Man(b1-4)GlcNAc(b1-4)GlcNAc
Outline: as §1

[4] = target: Fuc(a1-2)Gal(b1-4)[Fuc(a1-3)]GlcNAc(b1-3)Gal(b1-4)[Fuc(a1-3)]GlcNAc
Outline: as §1

[5] = target: Fuc(a1-2)Gal(b1-4)[Fuc(a1-3)]GlcNAc(b1-3)Gal(b1-4)[Fuc(a1-3)]GlcNAc(b1-3)Gal(b1-4)[Fuc(a1-3)]GlcNAc
Outline: as §1

[6] = target: Fuc(a1-2)Gal(b1-4)[Fuc(a1-3)]GlcNAc(b1-3)GalNAc
Outline: as §1

Fuc(a1-2)Gal6S(b1-4)Glc = target: Fuc(a1-2)Gal6S(b1-4)Glc
Outline: as §1

[7] = target: Fuc(a1-2)Gal6S(b1-4)Glc6S
Outline: as §1

[8] = target: Fuc(a1-2)Gal6S(b1-4)GlcNAc
Outline: as §1

Fuc(a1-2)GlcNAc = target: Fuc(a1-2)GlcNAc
Outline: as §1

Fuc(a1-2)[Gal(a1-3)]Gal = target: Fuc(a1-2)[Gal(a1-3)]Gal
Outline: as §1

[9] = target: Fuc(a1-2)[Gal(a1-3)]Gal(b1-3)GalNAc
Outline: as §1

[10] = target: Fuc(a1-2)[Gal(a1-3)]Gal(b1-3)GlcNAc
Outline: as §1

[11] = target: Fuc(a1-2)[Gal(a1-3)]Gal(b1-3)GlcNAc(b1-2)Man(a1-3)[Fuc(a1-2)[Gal(a1-3)]Gal(b1-3)GlcNAc(b1-2)Man(a1-6)]Man(b1-4)GlcNAc(b1-4)GlcNAc
Outline: as §1

[12] = target: Fuc(a1-2)[Gal(a1-3)]Gal(b1-3)GlcNAc(b1-2)Man(a1-3)[Fuc(a1-2)[Gal(a1-3)]Gal(b1-3)GlcNAc(b1-2)Man(a1-6)]Man(b1-4)GlcNAc(b1-4)[Fuc(a1-6)]GlcNAc
Outline: as §1

[13] = target: Fuc(a1-2)[Gal(a1-3)]Gal(b1-3)GlcNAc(b1-3)GalNAc
Outline: as §1

[14] = target: Fuc(a1-2)[Gal(a1-3)]Gal(b1-4)Glc
Outline: as §1

[15] = target: Fuc(a1-2)[Gal(a1-3)]Gal(b1-4)GlcNAc
Outline: as §1

[16] = target: Fuc(a1-2)[Gal(a1-3)]Gal(b1-4)GlcNAc(b1-2)Man(a1-3)[Fuc(a1-2)[Gal(a1-3)]Gal(b1-4)GlcNAc(b1-2)Man(a1-6)]Man(b1-4)GlcNAc(b1-4)GlcNAc
Outline: as §1

[17] = target: Fuc(a1-2)[Gal(a1-3)]Gal(b1-4)GlcNAc(b1-2)Man(a1-3)[Fuc(a1-2)[Gal(a1-3)]Gal(b1-4)GlcNAc(b1-2)Man(a1-6)]Man(b1-4)GlcNAc(b1-4)[Fuc(a1-6)]GlcNAc
Outline: as §1

[18] = target: Fuc(a1-2)[Gal(a1-3)]Gal(b1-4)GlcNAc(b1-3)GalNAc
Outline: as §1

[19] = target: Fuc(a1-2)[Gal(a1-3)]Gal(b1-4)[Fuc(a1-3)]Glc
Outline: as §1

[20] = target: Fuc(a1-2)[Gal(a1-3)]Gal(b1-4)[Fuc(a1-3)]GlcNAc
Outline: as §1

[21] = target: Fuc(a1-2)[Gal(a1-3)]Gal(b1-4)[Fuc(a1-3)]GlcNAc(b1-3)GalNAc
Outline: as §1

[22] = target: Fuc(a1-2)[Gal(a1-4)]Gal(b1-4)GlcNAc
Outline: as §1

[23] = target: Fuc(a1-2)[GalNAc(a1-3)]Gal
Outline: as §1

[24] = target: Fuc(a1-2)[GalNAc(a1-3)]Gal(b1-3)GalNAc(a1-3)[Fuc(a1-2)]Gal(b1-4)GlcNAc
Outline: as §1

[25] = target: Fuc(a1-2)[GalNAc(a1-3)]Gal(b1-3)GlcNAc
Outline: as §1

[26] = target: Fuc(a1-2)[GalNAc(a1-3)]Gal(b1-3)GlcNAc(b1-2)Man(a1-3)[Fuc(a1-2)[GalNAc(a1-3)]Gal(b1-3)GlcNAc(b1-2)Man(a1-6)]Man(b1-4)GlcNAc(b1-4)GlcNAc
Outline: as §1

[27] = target: Fuc(a1-2)[GalNAc(a1-3)]Gal(b1-3)GlcNAc(b1-2)Man(a1-3)[Fuc(a1-2)[GalNAc(a1-3)]Gal(b1-3)GlcNAc(b1-2)Man(a1-6)]Man(b1-4)GlcNAc(b1-4)[Fuc(a1-6)]GlcNAc
Outline: as §1

[28] = target: Fuc(a1-2)[GalNAc(a1-3)]Gal(b1-3)GlcNAc(b1-3)GalNAc
Outline: as §1

[29] = target: Fuc(a1-2)[GalNAc(a1-3)]Gal(b1-4)Glc
Outline: as §1

[30] = target: Fuc(a1-2)[GalNAc(a1-3)]Gal(b1-4)GlcNAc
Outline: as §1

[31] = target: Fuc(a1-2)[GalNAc(a1-3)]Gal(b1-4)GlcNAc(b1-2)Man(a1-3)[Fuc(a1-2)[GalNAc(a1-3)]Gal(b1-4)GlcNAc(b1-2)Man(a1-6)]Man(b1-4)GlcNAc(b1-4)GlcNAc
Outline: as §1

[32] = target: Fuc(a1-2)[GalNAc(a1-3)]Gal(b1-4)GlcNAc(b1-2)Man(a1-3)[Fuc(a1-2)[GalNAc(a1-3)]Gal(b1-4)GlcNAc(b1-2)Man(a1-6)]Man(b1-4)GlcNAc(b1-4)[Fuc(a1-6)]GlcNAc
Outline: as §1

[33] = target: Fuc(a1-2)[GalNAc(a1-3)]Gal(b1-4)GlcNAc(b1-3)Gal(b1-4)GlcNAc
Outline: as §1

[34] = target: Fuc(a1-2)[GalNAc(a1-3)]Gal(b1-4)GlcNAc(b1-3)Gal(b1-4)GlcNAc(b1-3)Gal(b1-4)GlcNAc
Outline: as §1

B1: F17aG (Escherichia coli), Q99003 (protein)
chain: MTNFYKVFLAVFILVCCNISQAAVSFIGSTENDVGPSLGSYSRTHAMDNLPFVYDTRNKIGYQNANVWHISKGFCVGLDGKVDLPVVGSLDGQSIYGLTEEVGLLIWMGDTKYSRGTAMSGNSWENVFSGWCVGANTASTQGLSVRVTPVILKRNSSARYSVQKTSIGSIRMRPYNGSSAGSVQTTVNFSLNPFTLNDTVTSCRLLTPSAVNVSLAAISAGQLPSSGDEVVAGTTSLKLQCDAGVTVWATLTDATTPSNRSDILTLTGASTATGVGLRIYKNTDSTPLKFGPDSPVKGNENQWQLSTGTETSPSVRLYVKYVNTGEGINPGTVNGISTFTFSYQ
[1]
  glycan array binding signal (z-score): 0.046
[2]
  glycan array binding signal (z-score): -0.15
[3]
  glycan array binding signal (z-score): -0.163
[4]
  glycan array binding signal (z-score): -0.24
[5]
  glycan array binding signal (z-score): -0.238
[6]
  glycan array binding signal (z-score): -0.118
Fuc(a1-2)Gal6S(b1-4)Glc
  glycan array binding signal (z-score): -0.156
[7]
  glycan array binding signal (z-score): -0.167
[8]
  glycan array binding signal (z-score): -0.148
Fuc(a1-2)GlcNAc
  glycan array binding signal (z-score): -0.327
Fuc(a1-2)[Gal(a1-3)]Gal
  glycan array binding signal (z-score): -0.211
[9]
  glycan array binding signal (z-score): -0.171
[10]
  glycan array binding signal (z-score): -0.205
[11]
  glycan array binding signal (z-score): -0.169
[12]
  glycan array binding signal (z-score): -0.172
[13]
  glycan array binding signal (z-score): -0.168
[14]
  glycan array binding signal (z-score): -0.249
[15]
  glycan array binding signal (z-score): -0.265
[16]
  glycan array binding signal (z-score): -0.159
[17]
  glycan array binding signal (z-score): -0.179
[18]
  glycan array binding signal (z-score): -0.133
[19]
  glycan array binding signal (z-score): -0.158
[20]
  glycan array binding signal (z-score): -0.183
[21]
  glycan array binding signal (z-score): -0.155
[22]
  glycan array binding signal (z-score): -0.165
[23]
  glycan array binding signal (z-score): 0.386
[24]
  glycan array binding signal (z-score): -0.177
[25]
  glycan array binding signal (z-score): -0.249
[26]
  glycan array binding signal (z-score): -0.136
[27]
  glycan array binding signal (z-score): -0.143
[28]
  glycan array binding signal (z-score): -0.113
[29]
  glycan array binding signal (z-score): -0.247
[30]
  glycan array binding signal (z-score): -0.233
[31]
  glycan array binding signal (z-score): -0.099
[32]
  glycan array binding signal (z-score): -0.135
[33]
  glycan array binding signal (z-score): -0.171
[34]
  glycan array binding signal (z-score): 0.023
